This note sets out measurements from patent US20210330611A1, “THERAPY FOR NEUROLOGICAL DISEASES/DISORDERS” (priority 2020, published 2021).

Data set [1] has as its system fibrin-induced microglia activation. Put plainly: Image-based assay of fibrin-induced microglia activation (HTS and dose response). The class given is cell-based, rat. The settings on record: for inhibition at 10 µM: read-out: Fibrin % inhibition.
The subject of data set [2] is LPS-induced microglia activation. Nature of the data set: Image-based assay of LPS-induced microglia activation (HTS and dose response). The class given is cell-based, rat. The following applies: for IC50 / inhibition at 10 µM: Rattus norvegicus, Microglia; for inhibition at 10 µM: read-out: LPS % inhibition.
For data set [3], the system named is fibrin- and LPS-induced microglia activation. It counts as cell-based, rat.
Data set [4] in a line: in vitro. The following applies: rat, Cell Toxicity IC50 (uM) [cFib assay].
Data set [5] in a line: in vitro. The settings on record: rat.
[6] abbreviates: Rattus norvegicus, Microglia, 48 h, read-out: Fibrin IC50.
[7] abbreviates: Rattus norvegicus, Microglia, read-out: Fibrin IC50 (uM).
Setting [8] is: Rattus norvegicus, Microglia, read-out: Fibrin IC50 (uM) (Suppl. Table 7).
Setting [9] is: read-out: LPS IC50 (uM) (Suppl. Table 7).
Setting [10] is: Rattus norvegicus, Microglia, read-out: fib_IC50 (uM).

Structures can show the parent of a compound that is named as a salt. Where two headings read alike, the source gives them in different places.

With `Clc1ccc2c(c1)C(N1CCNCC1)=Nc1ccccc1O2` [Amoxapine, reference compound], the IC50 turned out to be 20 µM in data set [1] (setting [6]); 20 µM in data set [1] (setting [7]); 20 µM in data set [1] (setting [8]); 11 µM in data set [2] (48 h, read-out: LPS IC50); 11 µM in data set [2] (read-out: LPS IC50 (uM)); 11 µM in data set [2] (setting [9]).

The inhibition is the change of the read-out against control, counted positive when it falls. With `CCCCCCCCCCCCCCCC[n+]1ccccc1` [Cetylpyridinium Bromide], the inhibition at 10 µM in data set [1] (Rattus norvegicus, Microglia) came out at 112%; in data set [2] (48 h), 114%.

As to `C(=C\c1ccccc1)/CN1CCN(C(c2ccccc2)c2ccccc2)CC1` [Cinnarizine], the inhibition at 10 µM is -32% in data set [1] (Rattus norvegicus, Microglia) and -2% in data set [2].

Take `COc1cc2c(c(OC)c1OC)-c1ccc(OC)c(=O)cc1[C@@H](NC(C)=O)CC2` [Colchicine, reference compound]: the IC50 in data set [1] (setting [10]) was found to be 0.022 µM; in data set [1] (read-out: fib_IC50), 0.015 µM.

With `Clc1ccc2c(c1)CCc1cccnc1C2=C1CCNCC1` [Desloratadine], the inhibition at 10 µM in data set [2] was determined as 45%.

Regarding `C[C@@H]1C[C@H]2[C@@H]3CCC4=CC(=O)C=C[C@]4(C)[C@@]3(F)[C@@H](O)C[C@]2(C)[C@@]1(O)C(=O)COP(=O)(O)O` [Dexamethasone Phosphate], the inhibition at 10 µM in data set [1] (Rattus norvegicus, Microglia) was found to be 103%; in data set [2] (48 h), 93%.

Regarding `C[C@@H]1C[C@H]2[C@@H]3CCC4=CC(=O)C=C[C@]4(C)[C@@]3(F)[C@@H](O)C[C@]2(C)[C@@]1(O)C(=O)COP(=O)(O)O` [Dexamethasone sodium phosphate, reference compound], the Fibrin % inhibition in data set [1] is 112%. Further, the IC50 in data set [1] (setting [6]) was found to be 0.004 µM; in data set [1] (setting [7]) it was 0.004 µM; in data set [1] (setting [8]), 0.004 µM; in data set [1] (setting [10]), 0.002 µM; in data set [2] (48 h, read-out: LPS IC50), 2 µM; in data set [2] (read-out: LPS IC50 (uM)), 2 µM. Also, the IC50 is 2 µM in data set [2] (setting [9]), 0.005 µM in data set [2] (read-out: LPS_IC50 (uM)), more than 20 µM in the data set “in vitro [4]” and more than 20000 nM in the data set “in vitro [5]”. In data set [2], this compound registered an LPS % inhibition of 100%. Also, the Activity result in data set [3] is reported as “fib/LPS”.

Consider `CCN(CC)CCOC(=O)C1(C2CCCCC2)CCCCC1` [Dicyclomine], for which the inhibition at 10 µM in data set [1] (Rattus norvegicus, Microglia) was -36%; in data set [2] it was 16%.

In the case of `CCN(CC)C(=O)N[C@H]1C=C2c3cccc4[nH]cc(c34)C[C@H]2N(C)C1` [Lisuride], the inhibition at 10 µM in data set [1] (Rattus norvegicus, Microglia) is -27%; in data set [2] (48 h), -9%.

With `CN(C)CCN(Cc1cccs1)c1ccccn1` [Methapyrilene], the inhibition at 10 µM in data set [1] (Rattus norvegicus, Microglia) was determined as 17%; in data set [2] (48 h), 13%.

For `Clc1ccc(COC(Cn2ccnc2)c2ccc(Cl)cc2Cl)c(Cl)c1` (centres unmarked) [Miconazole nitrate, reference compound], the IC50 is 20 µM in data set [1] (setting [6]); 20 µM in data set [1] (setting [7]); 20 µM in data set [1] (setting [8]); more than 20 µM in data set [2] (48 h, read-out: LPS IC50); more than 20 µM in data set [2] (read-out: LPS IC50 (uM)); more than 20 µM in data set [2] (setting [9]).

On to `Cc1ccccc1C(OCCN(C)C)c1ccccc1` (centres unmarked) [Orphenadrine], for which the inhibition at 10 µM in data set [1] (Rattus norvegicus, Microglia) was -17%; in data set [2] (48 h), 10%.

`Clc1ccc(CO/N=C(\Cn2ccnc2)c2ccc(Cl)cc2Cl)c(Cl)c1` [Oxiconazole]: the inhibition at 10 µM in data set [1] (Rattus norvegicus, Microglia) amounted to 12%; in data set [2] (48 h), 15%.

`CN1CCN(CCCN2c3ccccc3Sc3ccc(Cl)cc32)CC1` [Prochlorperazine dimaleate, reference compound]: the IC50 amounted to 4.38 µM in data set [1] (setting [10]) and 2.01 µM in data set [2] (read-out: LPS_IC50 (uM)).

For `Clc1ccc(CSC(Cn2ccnc2)c2ccc(Cl)cc2Cl)cc1` (centres unmarked) [Sulconazole], the inhibition at 10 µM in data set [1] (Rattus norvegicus, Microglia) turned out to be 10%; in data set [2] it was 13%.

Regarding `CSc1ccc2c(c1)N(CCC1CCCCN1C)c1ccccc1S2` (centres unmarked) [Thioridazine hydrochloride, reference compound], the values for the IC50 in data set [1] (setting [10]) and in data set [2] (read-out: LPS_IC50 (uM)) were 1.01 µM and 0.677 µM, respectively.
